In the test the target is Nonstructural protein 3 (Zika virus) (UniProt A0A024AXB9).
Where [1] appears, read: PRVABC59, Concentration 10.0 uM, Number of replicates 1.0.
[2] abbreviates: PRVABC59, Concentration 15.0 uM, Number of replicates 1.0.
The mark [3] stands for this setting: PRVABC59, Concentration 50.0 uM, Number of replicates 1.0.

Molecules are shown by their SMILES. Hit rate of the full screen: of about 2,700 compounds, about 160 (5.9%) showed an effect of 50% or more. The list shows a part of the results.

As usually defined, the inhibition is the drop in the measured response relative to a control, in per cent.

UniProt A0A024AXB9, sequence (A0A024AXB9 as listed by the source): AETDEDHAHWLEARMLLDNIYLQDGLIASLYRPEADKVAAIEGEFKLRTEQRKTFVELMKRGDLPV

Consider `Cc1ncc(CO)c(CNC(=O)C2CCN(c3ccc(C=O)cc3)CC2)c1O`, for which the inhibition under setting [1] is -7.66%.

On to `O=C(Nc1ccc(-n2cccn2)cc1)c1cc(Cl)ccc1NS(=O)(=O)c1ccc(Oc2ccccc2Cl)cc1`, for which, under setting [2], the inhibition stood at 71.5%.

With `O=C(c1cc(Cl)ccc1NS(=O)(=O)c1ccc(Oc2ccccc2Cl)cc1)N1CCN(C(c2ccc(F)cc2)c2ccc(F)cc2)CC1`, under setting [2], the inhibition is 8.11%.

Turning to `Cc1cc(CO)c2cccc(C[C@H](NC(=O)c3cc(C(F)F)nn3C)C(=O)O)c2n1`, the inhibition reads like this: (PRVABC59, Concentration 49.95 uM, Number of replicates 2.0, Standard deviation 2.764997803611235 %) -3.25%; (PRVABC59, Concentration 99.9 uM, Number of replicates 2.0, Standard deviation 1.1240644155399124 %) 0.291%.

For the molecule `O=C(c1cccs1)N1CCCN(C(=O)c2cc(Cl)ccc2NS(=O)(=O)c2ccc(Oc3ccccc3Cl)cc2)CC1`, the inhibition under setting [2] came out at 6.67%.

Turning to `O=C(c1cc(Cl)ccc1NS(=O)(=O)c1ccc(Oc2ccccc2Cl)cc1)N1CCN(C(=O)[C@@H]2CCCO2)CC1`, the inhibition under setting [2] is -3.32%.

With `O=C(NCc1ccc(Oc2ccccc2)cc1)c1cc(Cl)ccc1NS(=O)(=O)c1ccc(Oc2ccccc2Cl)cc1`, under setting [2], the inhibition was 12.9%.

`O=C(c1cc(Cl)ccc1NS(=O)(=O)c1ccc(Oc2ccccc2Cl)cc1)N1CCN(c2ccc(Cl)c(Cl)c2)CC1`: the inhibition under setting [2] is 15.9%.

Regarding `CC[C@H](NC(=O)c1cc(Cl)ccc1NS(=O)(=O)c1ccc(Oc2ccccc2Cl)cc1)c1cccc(C)n1`, the inhibition under setting [2] is 31.9%.

As to `CCn1nnc(Cn2ncc(C3CCNCC3)c2C)n1`, the inhibition by setting is: (PRVABC59, Concentration 49.5 uM, Number of replicates 2.0, Standard deviation 2.1917246783635673 %) 1.66%; (PRVABC59, Concentration 99.01 uM, Number of replicates 2.0, Standard deviation 3.860511564648231 %) 0.462%; (PRVABC59, Concentration 198.0 uM, Number of replicates 2.0, Standard deviation 2.2045418247553137 %) 3.04%.

With `Cc1cc(Br)c(Cl)cc1NC(=O)c1cc(Cl)ccc1NS(=O)(=O)c1ccc(Oc2ccccc2Cl)cc1`, the inhibition under setting [2] worked out at 28.4%.

Turning to `CNC(=O)C[C@H]1CCCCN1S(=O)(=O)c1ccc(Oc2ccccc2Cl)cc1`, the inhibition (PRVABC59, Concentration 49.5 uM, Number of replicates 2.0, Standard deviation 1.74797799606614 %) came out at 0.447%; the inhibition (PRVABC59, Concentration 99.01 uM, Number of replicates 2.0, Standard deviation 2.4032055892179 %) came out at 2.65%; the inhibition (PRVABC59, Concentration 198.0 uM, Number of replicates 2.0, Standard deviation 2.03120532382153 %) was 5.58%.

Regarding `CC(C)(C)[C@H](NC(=O)c1cc(Cl)ccc1NS(=O)(=O)c1ccc(Oc2ccccc2Cl)cc1)c1ccccc1`, the inhibition under setting [2] was found to be 57.8%.

Turning to `O=C(N[C@H](CO)CC1CCCCC1)c1cc(Cl)ccc1NS(=O)(=O)c1ccc(Oc2ccccc2Cl)cc1`, under setting [2], the inhibition worked out at 40.7%.

As for `CN(Cc1cccc([N+](=O)[O-])c1)C(=O)C1CCN(c2ccc(C=O)cc2)CC1`, the inhibition under setting [3] came out at 27.7%.

For the molecule `O=C(NCc1ccc(-c2cccs2)cc1)c1cc(Cl)ccc1NS(=O)(=O)c1ccc(Oc2ccccc2Cl)cc1`, under setting [2], the inhibition is 28.5%.

Regarding `COc1ccccc1[C@H](C)NC(=O)C1CCN(c2ccc(C=O)cc2)CC1`, the inhibition under setting [1] is 25.4%.

Take `CC(C)(CO)NC(=O)c1cc(Cl)cc(NC(=O)c2ccc(O)nc2)c1`: the inhibition runs as follows: (PRVABC59, Concentration 49.5 uM, Number of replicates 2.0, Standard deviation 2.8459152851862095 %) -3.39%; (PRVABC59, Concentration 99.01 uM, Number of replicates 2.0, Standard deviation 3.166668059513274 %) -5.46%; (PRVABC59, Concentration 198.0 uM, Number of replicates 2.0, Standard deviation 2.455699952653552 %) -9.48%.

Consider `CC(=O)N(C)C1CCN(C(=O)C2CCN(c3ccc(C=O)cc3)CC2)CC1`, for which the inhibition under setting [3] is 22.7%.

`CCS(=O)(=O)Cn1cc(C2CCNCC2)c(C)n1`: the inhibition runs as follows: (PRVABC59, Concentration 49.5 uM, Number of replicates 2.0, Standard deviation 3.2018149908360845 %) -0.635%; (PRVABC59, Concentration 99.01 uM, Number of replicates 2.0, Standard deviation 2.9597815713467575 %) -0.319%; (PRVABC59, Concentration 198.0 uM, Number of replicates 2.0, Standard deviation 2.756719572507816 %) -0.294%.

As for `O=C(NCC[C@H](O)c1ccccc1)c1cc(Cl)ccc1NS(=O)(=O)c1ccc(Oc2ccccc2Cl)cc1`, under setting [2], the inhibition came out at 38.9%.

With `Cc1cc(CO)c2cccc(Cc3cccc(NC(=O)c4cnn(Cc5c(C)noc5C)c4)c3)c2n1`, the inhibition is -7.66% (PRVABC59, Concentration 49.95 uM, Number of replicates 2.0, Standard deviation 1.2645726940217121 %) and -9.24% (PRVABC59, Concentration 99.9 uM, Number of replicates 2.0, Standard deviation 1.7914774212394455 %).

Regarding `N#Cc1ccc(NC(=O)c2cccc(OCc3c(Cl)cccc3Cl)c2)cc1`, the inhibition reads like this: (PRVABC59, Concentration 49.5 uM, Number of replicates 2.0, Standard deviation 0.20634422681357545 %) 4.22%; (PRVABC59, Concentration 99.01 uM, Number of replicates 2.0, Standard deviation 2.5272055371938618 %) 0.672%; (PRVABC59, Concentration 198.0 uM, Number of replicates 2.0, Standard deviation 2.5844097266569093 %) -0.903%.

With `O=Cc1ccc(N2CCC(C(=O)N3CCCN(C(=O)c4cccs4)CC3)CC2)cc1`, under setting [3], the inhibition was found to be 27.4%.

For the molecule `Cc1cc(CO)c2cccc(NC(=O)[C@@H](N)CC(N)=O)c2n1`, the inhibition was -8.78% (PRVABC59, Concentration 49.95 uM, Number of replicates 2.0, Standard deviation 2.393655071198483 %) and 2.53% (PRVABC59, Concentration 99.9 uM, Number of replicates 2.0, Standard deviation 5.685557854908542 %).

Take `COc1cc(C(=O)N2CCCCC2)nc(N2CCNCC2)n1`: the inhibition was determined as 0.369% (PRVABC59, Concentration 49.5 uM, Number of replicates 2.0, Standard deviation 4.620460715798585 %); 1.45% (PRVABC59, Concentration 99.01 uM, Number of replicates 2.0, Standard deviation 3.120933039054405 %); 2.26% (PRVABC59, Concentration 198.0 uM, Number of replicates 2.0, Standard deviation 4.0741886266062775 %).

For `O=C(c1cc(Cl)ccc1NS(=O)(=O)c1ccc(Oc2ccccc2Cl)cc1)N1CCC(Cc2ccccc2)CC1`, under setting [2], the inhibition stood at 23.2%.

The record behind these values is ChEMBL document CHEMBL5606458, “ASAP - ZIKV NS2B-NS3 protease fluorescence single point” (2024).
